Laboratory results as given in article PMC4336329 (PLoS ONE, 2015).
The campaign covered roughly 310,000 compounds. About 2,200 (0.71%) showed an effect of 50% or more. Effects have a minus sign here. The list shows a part of the results.

Target: human ether-à-go-go-related gene (hERG) potassium channel (human, UniProt Q12809)
Experiment: primary screen, population patch clamp on CHO cells stably expressing hERG

Chain of human ether-à-go-go-related gene (hERG) potassium channel (Q12809 whole entry, looked up): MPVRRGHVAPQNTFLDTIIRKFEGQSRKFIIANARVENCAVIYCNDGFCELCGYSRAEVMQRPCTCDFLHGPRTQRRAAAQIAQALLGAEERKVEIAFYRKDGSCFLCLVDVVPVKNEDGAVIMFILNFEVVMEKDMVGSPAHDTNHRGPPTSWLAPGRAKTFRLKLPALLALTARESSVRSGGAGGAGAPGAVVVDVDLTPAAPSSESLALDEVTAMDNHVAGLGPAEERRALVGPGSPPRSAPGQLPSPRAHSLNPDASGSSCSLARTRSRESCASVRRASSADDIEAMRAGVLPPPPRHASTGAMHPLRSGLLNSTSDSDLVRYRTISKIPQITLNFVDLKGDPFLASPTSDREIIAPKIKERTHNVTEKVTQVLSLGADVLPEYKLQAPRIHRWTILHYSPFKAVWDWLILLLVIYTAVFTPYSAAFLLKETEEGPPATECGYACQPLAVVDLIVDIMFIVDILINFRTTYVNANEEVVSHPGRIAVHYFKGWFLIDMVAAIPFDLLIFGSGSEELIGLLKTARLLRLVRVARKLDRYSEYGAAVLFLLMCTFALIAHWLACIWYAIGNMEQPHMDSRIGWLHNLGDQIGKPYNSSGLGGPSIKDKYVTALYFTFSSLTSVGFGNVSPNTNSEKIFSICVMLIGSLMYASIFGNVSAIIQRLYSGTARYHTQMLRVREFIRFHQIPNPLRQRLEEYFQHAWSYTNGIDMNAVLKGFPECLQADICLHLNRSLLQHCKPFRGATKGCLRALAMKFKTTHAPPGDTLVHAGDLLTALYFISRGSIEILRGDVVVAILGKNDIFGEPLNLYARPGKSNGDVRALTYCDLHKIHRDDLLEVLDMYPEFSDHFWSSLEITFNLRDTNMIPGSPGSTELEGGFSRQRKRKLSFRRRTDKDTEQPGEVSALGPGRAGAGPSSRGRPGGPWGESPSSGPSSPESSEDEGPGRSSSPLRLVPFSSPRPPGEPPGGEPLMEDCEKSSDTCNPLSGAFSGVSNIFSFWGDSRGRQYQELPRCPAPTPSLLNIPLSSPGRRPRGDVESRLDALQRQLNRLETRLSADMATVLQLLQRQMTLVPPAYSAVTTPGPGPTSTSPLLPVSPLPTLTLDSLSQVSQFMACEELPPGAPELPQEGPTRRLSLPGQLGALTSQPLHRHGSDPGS

Row | SMILES | hERG current change (%, negative = inhibition) at 1uM [%]
1 | c1cc2[nH]snc2c2nc(C3CC3)nc12 | -1.81
2 | CC(=O)c1ccc(NCC(=O)N2CCN(S(=O)(=O)c3ccccc3)CC2)cc1 | 7.78
3 | Cc1csc(NC(=O)Cc2ccccc2[N+](=O)[O-])n1 | 10.5
4 | CCn1c(SCC(=O)Nc2nnc(C)s2)nnc1C(C)NC(=O)c1ccccc1 (stereo not shown) | 14.7
5 | C/C(=N/NC(=O)c1ccco1)c1ccc(Br)s1 | 8.71
6 | COC(=O)C(C)NC(=O)C12CC3CC(CC(C3)C1)C2 (stereo not shown) | 12
7 | CC1=C/C(=N\OS(=O)(=O)c2ccccc2)C(C)=CC1=O | 11
8 | COC(=O)c1c(C)oc(C)c1S(=O)(=O)N1CCCC1 | 10.8
9 | CCc1ccccc1NC(=O)Nc1cccn(Cc2ccc(F)cc2)c1=O | 13.2
10 | Nc1nonc1C(=O)N/N=C/c1cccc([N+](=O)[O-])c1 | -6.3
11 | CCc1ccc(Nc2ncc3c(n2)CC(c2ccco2)CC3=O)cc1 (stereo not shown) | 5.43
12 | Cc1cc(C)cc(N(CC(=O)Nc2ccc(-c3nc4ccc(C)cc4s3)cc2)S(C)(=O)=O)c1 | 5.59
13 | Cc1cc(C)c2cc(C=O)c(Cl)nc2c1 | 9.63
14 | CCc1ccc2c(c1)C(c1ccc(N3CCOCC3)cc1)=NNC(c1ccncc1)=N2 | -1.9
15 | CCc1ccc(NC(=O)CC2C(=O)NCCN2C(=O)c2ccc(F)cc2)cc1 (stereo not shown) | -7.06
16 | CNc1ccc(Br)cc(C(=O)/C=C/c2ccc(OC)cc2)c1=O | 4.02
17 | CC1=CC(C)C(C(=O)O)C(C(=O)Nc2cccnc2)C1 (stereo not shown) | 15.9
18 | CN(c1ccccc1)c1nc(N)c([N+](=O)[O-])c(NCCO)n1 | 14.5
19 | NC(=O)CC1C(=O)N(c2ccc(Cl)cc2)C(=S)N1NC(=O)c1cccc(F)c1 (stereo not shown) | 11.9
20 | O=C(O)C(=O)O.O=[N+]([O-])c1ccccc1S(=O)(=O)N1CCN(CC2CC3C=CC2C3)CC1 (stereo not shown) | 12.4
21 | c1ccc(-c2nnc(OCCN3CCOCC3)c3ccccc23)cc1 | 14.5
22 | CCC(C)NC(=O)C1CCN(S(=O)(=O)c2ccc(-n3cnnn3)cc2)CC1 (stereo not shown) | 15.9

Row | SMILES | hERG current change (%, negative = inhibition) at 1uM [%]
23 | O=C(CCCN1C(=O)/C(=C/c2ccccc2Cl)SC1=S)NCCCN1CCOCC1 | 0.473
24 | C=CCn1c(=O)c(CCC(=O)Nc2ccc(N3CCOCC3)cc2)nc2cc(C(F)(F)F)ccc21 | -1.24
25 | CCCCC(C(=O)NC1CCCC1)N(C(=O)c1snc(C(N)=O)c1N)c1ccc(OCC)cc1 (stereo not shown) | 8.4
26 | Cc1ccc2c(c1)CCCN2C(=O)c1c(C)noc1C | -3.48
27 | Cc1sc2nc3ccc(N4CCCCC4)nn3c(=O)c2c1C | 8.77
28 | COC(=O)C(C)N1C(=O)S/C(=C/c2cc(C)n(-c3ccccn3)c2C)C1=O (stereo not shown) | 1.54
29 | CN(Cc1ccc(F)cc1)C(=O)c1cccc(S(=O)(=O)N2CCN(c3ccccc3)CC2)c1 | -4.55
30 | Cc1sc2ncn(CC(=O)NCCCC(=O)N3CCN(Cc4ccc5c(c4)OCO5)CC3)c(=O)c2c1C | 9.66
31 | Cc1cc([N+](=O)[O-])nn1Cc1ccc(C(=O)N/N=C/c2ccc(N(C)C)cc2)cc1 | 12.6
32 | CC12CC(c3ccccc3O1)N(C(=O)c1ccco1)C(=S)N2c1ccccc1 (stereo not shown) | 14.1
33 | COCCCNc1nc2nonc2nc1N1C[C@H]2CC[C@H]1C2 | 19.2
34 | COc1ccc(S(=O)(=O)NCCc2ccccc2)cc1OC | 10.8
35 | Cc1c(NC(=O)c2ccc(Br)o2)cccc1C(=O)O | 8.68
36 | CCC(=O)NC(C)C(c1cccs1)N1CCN(Cc2ccccc2)CC1 (stereo not shown) | 12.1
37 | COc1cc2sc3ccc(-c4ccc5[nH]ccc5c4)cc3c(=O)c2cc1OC | 12.5
38 | CC(OC(=O)Cc1ccsc1)C(=O)Nc1ccc(C(N)=O)cc1 (stereo not shown) | 9.72
39 | Cc1cc(C(c2ccc(O)cc2)c2cc(C)c(O)cc2C)c(C)cc1O | 10.2
40 | CC(C)OC(=O)c1cc(-c2ccc(C=O)o2)ccc1Cl | 12.1
41 | O=C(COC(=O)CC12CC3CC(CC(Br)(C3)C1)C2)NC(=O)NCc1ccco1 | 11.9
42 | Cc1ccc(NC(=O)COC(=O)CCn2c(C)csc2=O)cc1S(=O)(=O)N1CCOCC1 | 12.5
43 | O=C(O)CSc1nc(C(F)(F)F)cc(=O)n1-c1ccccc1 | 14.5
